In paper PMC4585734:
These are yes or no findings as the source states them, for the method shown. In cells and extracts the contact can be indirect. Some binding calls cover weakened binding; strength is not graded here.

Amino acid sequences for entries named in this document (tags omitted).
UniProt Q13148: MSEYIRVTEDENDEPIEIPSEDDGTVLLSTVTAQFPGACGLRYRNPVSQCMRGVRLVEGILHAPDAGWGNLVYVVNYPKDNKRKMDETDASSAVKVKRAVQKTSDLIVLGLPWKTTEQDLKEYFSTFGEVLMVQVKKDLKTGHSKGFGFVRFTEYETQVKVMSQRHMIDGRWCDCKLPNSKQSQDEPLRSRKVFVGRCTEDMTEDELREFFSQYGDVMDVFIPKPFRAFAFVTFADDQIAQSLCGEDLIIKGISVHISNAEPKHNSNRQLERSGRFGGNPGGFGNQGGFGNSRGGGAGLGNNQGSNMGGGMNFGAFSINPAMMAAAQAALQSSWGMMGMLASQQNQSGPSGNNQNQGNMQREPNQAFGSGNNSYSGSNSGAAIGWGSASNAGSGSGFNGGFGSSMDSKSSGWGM
UniProt P35637: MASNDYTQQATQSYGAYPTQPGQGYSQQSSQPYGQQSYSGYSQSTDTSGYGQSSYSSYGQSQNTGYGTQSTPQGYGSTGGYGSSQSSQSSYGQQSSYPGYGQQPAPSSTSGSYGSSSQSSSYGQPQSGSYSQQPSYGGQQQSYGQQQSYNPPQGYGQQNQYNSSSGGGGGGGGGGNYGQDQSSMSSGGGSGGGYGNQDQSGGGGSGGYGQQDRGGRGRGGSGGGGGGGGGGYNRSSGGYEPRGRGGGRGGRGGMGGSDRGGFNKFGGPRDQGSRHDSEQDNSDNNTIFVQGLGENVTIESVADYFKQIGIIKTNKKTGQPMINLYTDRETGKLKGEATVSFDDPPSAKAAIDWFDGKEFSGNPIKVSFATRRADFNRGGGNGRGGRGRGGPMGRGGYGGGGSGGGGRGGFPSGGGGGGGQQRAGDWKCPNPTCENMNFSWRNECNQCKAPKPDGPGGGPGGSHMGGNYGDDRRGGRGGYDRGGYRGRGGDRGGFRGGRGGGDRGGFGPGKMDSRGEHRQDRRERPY

Experiments:
FLAG-TDP-43 = FLAG-TDP-43 (UniProt Q13148); assay: co-IP; live HEK293 cells treated with 0.1% formaldehyde before lysis (NP40 lysis buffer); FLAG-IP, 4 °C, 2 hr; cross-links reversed by heating; in one experiment in-cell RNase A treatment before cross-linking
FLAG-FUS = FLAG-FUS (UniProt P35637); assay: as above

Substance	binding (FLAG-TDP-43)	binding (FLAG-FUS)
endogenous FUS (HEK293) (from UniProt P35637 1-526)	binds	
endogenous TDP-43 (HEK293) (from UniProt Q13148 1-414)		binds
